The full ranking holds about 5,400 compounds; the median of “IFI” is about 2, and the highest 2% start at about 22. Some of the results follow.

The experiment can be described thus: NOVARTIS: Inhibition Frequency Index (IFI) - the number of HTS assays where a compound showed > 50% inhibition/induction, expressed as a percentage of the number of assays in which the compound was tested. Type of experiment: functional.
Molecule `CC(C)C[C@H](NC(=O)N1CCOCC1)C(=O)N[C@H](/C=C/S(=O)(=O)c1ccccc1)CCc1ccccc1` gave an IFI of 4.44%.
In turn, `CCCCCCc1cc2cc(-c3nc4ccccc4[nH]3)c(=Nc3ccccc3C)oc2cc1O` registered an IFI of 0%.
`c1cc(C2=NCCN2)ccc1OCCCOc1ccc(C2=NCCN2)cc1` displayed an IFI of 1.83%.
The molecule `COc1cccc(CCNC(=O)c2ccc(OC3CCN(CC(c4ccccc4)c4ccccc4)CC3)c(OC)c2)c1` displayed an IFI of 2.82%.
In the case of `Cc1ccc(C(C(=O)NC2CCCCC2)N(C(=O)Cn2nnc3ccccc32)c2ccc(S(=O)(=O)NCC3CCCO3)cc2)o1` (configuration not stated), the IFI was 1.8%.
In turn, `CCN(CC)CCCN(Cc1cc2c(C)cc(C)cc2[nH]c1=O)C(=S)NCCCN(C)C` displayed an IFI of 2.54%.
The molecule `CN1CCN(c2ccc(Nc3ccnc4cc(Cl)ccc34)cc2Cl)CC1` gave an IFI of 8.33%.
On to `Cc1ccc(Nc2nc(NN=Cc3ccc(-c4ccc(Cl)c([N+](=O)[O-])c4)o3)nc(N3CCOCC3)n2)c(Br)c1`, for which the IFI was 0%.
As to `c1ccc2c(c1)CSc1sccc1C2=C1CCNCC1`, the IFI was determined as 0%.
As for `CCCc1ccc(C(=O)NC(=O)c2ccccc2O)cc1`, the IFI is 6.11%.
The figure for `Cn1nc(C(F)(F)F)c(-c2ccc(Br)cc2)c1NC(=O)Nc1ccc(F)cc1F` is 0.84%; for `O=C1C(Sc2nnc[nH]2)=CC(=NS(=O)(=O)c2cccs2)c2ccccc21` it is 25%.
The molecule `O=C(c1ccc(Cl)cc1Cl)N1CCCC(C(F)(F)F)C1` (configuration not stated) returned an IFI of 0%.
For the molecule `CCCOC(=O)C1=C(C)NC2=C(C(=O)CC(c3ccc(OC)cc3)C2)C1c1cccc(Cl)c1Cl` (configuration not stated), the IFI was 7.14%.
Regarding `COc1ccc(C2CC(=O)C3=C(C2)NC(C)=C(C(=O)OC2CCCC2)C3c2ccccc2OC)cc1OC` (configuration not stated), the IFI worked out at 2.38%.
In the case of `N#C/C(=C\c1cn(Cc2ccc(Cl)cc2Cl)c2ccccc12)c1nc2ccccc2[nH]1`, the IFI is 0%.
For `CCOC(=O)C1=C(C)NC2=C(C(=O)CC(c3ccccc3)C2)C1c1ccccc1Cl` (configuration not stated), the IFI was found to be 5.95%.
Turning to `O=C1/C(=C/c2ccccc2)SC(=Nc2ccccc2)N1C1CCCCC1`, the IFI came out at 4.6%.
The molecule `Cc1ccccc1NC(c1cccc(Cl)c1)c1nnnn1C1CCCCC1` (configuration not stated) returned an IFI of 0%.
The figure for `O=C(Cn1ccc(=NCc2ccccc2)cc1)c1cccc([N+](=O)[O-])c1` is 0%; for `Cc1ccc(NC(=O)C2CC3c4ccccc4C2c2ccccc23)cc1` (configuration not stated) it is 0%; for `COc1cc(-c2nc3ccc(N4CCN(C)CC4)cc3[nH]2)cc(OC)c1OC` it is 6.02%.
For the molecule `COC(=O)C1=C(C)NC2=C(C(=O)CC(C)(C)C2)C1c1ccccc1[N+](=O)[O-]` (configuration not stated), the IFI was determined as 2.3%.
`CC(C)(C)c1ccc(C(=O)Nc2ccc(NC(=O)c3ccc(-c4ccc([N+](=O)[O-])cc4)o3)cc2)cc1` displayed an IFI of 0%.
`COc1cccc2c1C(=O)c1c(O)c3c(c(O)c1C2=O)C[C@@](O)(C(=O)CO)C[C@@H]3O[C@@H]1C[C@H](N)[C@H](O)[C@H](C)O1` displayed an IFI of 25.6%.
Next, `CC[n+]1c(/C=C2\C=C(C)CC(C)C2)sc2ccccc21` (configuration not stated): 7.14%; `Cc1cc(C)c(C(Nc2ccccn2)c2ccc3cccnc3c2O)c(C)c1` (configuration not stated): 9.52%.
`CCS/C(Cl)=C(/NC(=O)c1ccccc1)[P+](c1ccccc1)(c1ccccc1)c1ccccc1` registered an IFI of 3.57%.
`COCCN1Cc2cccc(C(=O)Nc3ccc4c(c3)OCCO4)c2C1=O` came in with an IFI of 0%.
As for `CCOC(=O)C1=C(c2ccccc2)N=c2sc(=Cc3c(C)n(Cc4ccc(F)cc4)c4ccccc34)c(=O)n2C1c1cccc(OC)c1OC` (configuration not stated), the IFI came to 4.6%.
The figure for `Cc1ccccc1N=Nc1ccc(NC(=O)c2ccco2)c(C)c1` is 3.79%.
The figure for `CSc1nnc(NC(=O)C2CC2)s1` is 0%; for `CCOC(=O)C1=C(c2ccccc2)N=c2sc(=Cc3cc(OC)c(OC)c(OC)c3)c(=O)n2C1c1c(OC)ccc2ccccc12` (configuration not stated) it is 3.49%; for `C=CCOc1ccccc1CN1CCN(c2ccccn2)CC1` it is 2.98%.
Molecule `CCCCNC(=O)CCCNC(=O)Cn1cnc2sc3c(c2c1=O)CCCC3` gave an IFI of 3.53%.
`COc1ccc(CCN(Cc2ccc(Cl)cc2)S(=O)(=O)c2ccc(S(N)(=O)=O)cc2)cc1OC` returned an IFI of 1.85%.
Molecule `NNC(=O)CNC(c1ccccc1)c1cc(Br)ccc1NC(=O)c1ccccc1Br` (configuration not stated) had an IFI of 3.08%.
Turning to `CC[n+]1c(/C=C/c2ccc(N(C)C)cc2)sc2cc(NC(C)=O)ccc21`, the IFI is 4.69%.
With `COc1cc(NC(C)CCCN(Cc2ccc(N(C)C)cc2)C(=O)C(Cl)Cl)c2ncccc2c1` (configuration not stated), the IFI was 4.67%.
Take `CCN1C=C/C(=C\c2cccc[n+]2C)c2ccccc21`: the IFI was 0%.
Consider `COc1ccc2c(ccc(/C=C3\C=CC=CN3C)[n+]2C)c1`, for which the IFI came to 6.67%.
Consider `CC(C)CNc1nc(NCCCN2CCCCC2C)ncc1C(=O)NCc1ccccc1` (configuration not stated), for which the IFI stood at 3.92%.
`CC(C)CNc1nc(NCCCN)ncc1C(=O)NCCc1ccccc1` yielded an IFI of 1.91%.
Molecule `CSc1oc(-c2ccccc2)nc1C(N)=O` had an IFI of 0%.
As to `CC(C)CN(CC(=O)N1CCC(Nc2nsc3ccccc23)C1)S(C)(=O)=O` (configuration not stated), the IFI was 20.8%.
The molecule `COc1ccc2c(c1)sc1nc(C)c(C)c(C)[n+]12` returned an IFI of 2.76%.
In the case of `CCc1c(C)c(C#N)c2nc3ccccc3n2c1NCc1ccccc1`, the IFI came out at 5%.
The molecule `CCOc1ccc(Nc2nc(NCc3ccccc3)c3ccccc3n2)cc1` gave an IFI of 7.14%.
`COc1ccc(OC)c(NC(=O)CSc2nc(NCc3ccc(Cl)cc3)c3ccccc3n2)c1`: the IFI is 2.22%.
Regarding `CCOC(=O)CCCCC(=O)c1[nH]c(=O)[nH]c1Cn1ccnc1`, the IFI came to 1.46%.
In turn, `Nc1nc(N)c2cc(S(=O)(=O)c3ccc4ccccc4c3)ccc2n1` registered an IFI of 12.4%.
Next, `CCOc1ccc2cc(C#N)c(SCC(=O)N3CC(=O)Nc4ccccc43)nc2c1`: 0%; `CC1CCCCN1CCCNCc1ccc(OCc2ccccc2)cc1` (configuration not stated): 6.48%.
`OC(CNc1cccc2ccccc12)Cn1c2ccccc2c2ccccc21` (configuration not stated) gave an IFI of 3.68%.
The molecule `CCC(C)NC(=O)c1nn(-c2cccc(OC)c2)c(=O)c2ccccc12` (configuration not stated) had an IFI of 0%.
In the case of `N#CCSc1ncccc1C(=O)NCCc1ccc(Oc2ccccc2)cc1`, the IFI was determined as 2.78%.
`CCCCc1ccc(C(=O)Oc2ccccc2-c2nc3cc(C)ccn3c2NC(C)(C)CC(C)(C)C)cc1` displayed an IFI of 5.26%.
`Cc1cc(NC(=O)c2ccc(Br)cc2)no1` returned an IFI of 0%.
Regarding `CCc1nc2nc(C)cc(Nc3ccc(C)c(F)c3)n2n1`, the IFI amounted to 1.82%.
Molecule `COc1ccc2c(c1)[nH]c1c(N3CCN(C(c4ccccc4)c4ccccc4)CC3)ncnc12` yielded an IFI of 8.77%.
`O=C(CCC1CCCC1)NC1CCC(Nc2ccnc3cc(Cl)ccc23)CC1` (configuration not stated) showed an IFI of 0.901%.
On to `CN1CCN(c2ccc(Nc3c4ccccc4nc4ccccc34)cc2)CC1`, for which the IFI was 15.6%.

For the origin of these results see ChEMBL document CHEMBL1156829.
